Laboratory results as given in the supplement of paper PMC9446081.
The campaign covered roughly 39,000 compounds. About 220 (0.56%) showed activity. The list shows a part of the results.

These molecules were tested on Escherichia coli K-12 BW25113 (assay: relative growth (OD600 normalised to plate interquartile mean) (fraction); higher = less growth inhibition, active = 0.2 or less). Conditions: 50 µM; LB; incubation time: overnight (16-24 h).
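Also: static incubation at 37 °C against the wild-type strain, values averaged over two biological replicates.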

| Compound | relative growth |
| --- | --- |
| C[C@H](CO)N1C[C@H](C)[C@H](CN(C)S(=O)(=O)c2cn(C)cn2)Oc2c(NS(=O)(=O)c3ccccc3)cccc2C1=O | inactive: 0.995 |
| C[C@@H]1CN([C@H](C)CO)C(=O)Cc2cc(NC(=O)Cn3cnnn3)ccc2O[C@@H]1CN(C)Cc1ccc(Cl)c(Cl)c1 | inactive: 0.97 |
| C[C@@H]1CCCCO[C@H](CN(C)S(=O)(=O)c2ccc(Cl)cc2)[C@@H](C)CN([C@@H](C)CO)C(=O)c2cc(NS(=O)(=O)c3cccs3)ccc2O1 | inactive: 1.01 |
| COCC#Cc1ccc2c(c1)O[C@H](CN(C)Cc1ccc(F)cc1)[C@H](C)CN([C@@H](C)CO)S2(=O)=O | inactive: 1.03 |
| C[C@H](CO)N1C[C@H](C)[C@H](CN(C)Cc2ccc(Oc3ccccc3)cc2)Oc2c(NC(=O)NC3CCCCC3)cccc2C1=O | inactive: 0.99 |
| C[C@H]1CN([C@@H](C)CO)C(=O)Cc2cc(NS(=O)(=O)c3ccccc3)ccc2O[C@H]1CN(C)S(=O)(=O)c1cccs1 | inactive: 0.998 |
| CCC(=O)Nc1ccc(Cl)cc1 | inactive: 1 |
| C[C@@H]1CCCCO[C@@H](CN(C)C(=O)CCCN(C)C)[C@@H](C)CN([C@H](C)CO)C(=O)c2cc(NS(=O)(=O)c3cn(C)cn3)ccc2O1 | inactive: 0.965 |
| O=c1nc[nH]c2nn(-c3ccccc3)nc12 | inactive: 0.991 |
| C[C@@H]1CN([C@H](C)CO)S(=O)(=O)c2ccc(C#Cc3ccccc3F)cc2O[C@H]1CN(C)C(=O)Cc1cccnc1 | inactive: 1.01 |
| OC[C@@H](O)[C@@H](O)[C@H](O)[C@H](O)CO | inactive: 0.981 |
| C[C@@H]1CCCCO[C@H](CN(C)C(=O)Cc2ccccc2)[C@@H](C)CN([C@@H](C)CO)C(=O)c2cc(NC(=O)Nc3ccccc3)ccc2O1 | inactive: 1.01 |
| C[C@H]1CN([C@@H](C)CO)C(=O)Cc2cc(NC(=O)Nc3ccc4c(c3)OCO4)ccc2O[C@@H]1CN(C)S(=O)(=O)c1cn(C)cn1 | inactive: 0.994 |
| Cc1noc(C)c1NC(=O)Nc1ccc2c(c1)C(=O)N([C@@H](C)CO)C[C@H](C)[C@H](CN(C)C(=O)Nc1cccc3ccccc13)O2 | inactive: 0.994 |
| COc1cccc(C#Cc2cnc3c(c2)C(=O)N([C@@H](C)CO)C[C@@H](C)[C@H](CN(C)C(=O)C2CCC2)O3)c1 | inactive: 0.998 |
| Cc1ccc(S(=O)(=O)N(C)C[C@H]2Oc3ccc(NC(=O)c4ccncc4)cc3C(=O)N([C@H](C)CO)C[C@H]2C)cc1 | inactive: 0.982 |
| O=C(C[C@@H]1CC[C@@H]2[C@H](COC[C@H](O)CN2S(=O)(=O)c2ccccc2F)O1)NCc1ccccc1F | inactive: 1.02 |
| C[C@H]1CN([C@@H](C)CO)C(=O)c2cc(NC(=O)CCCN(C)C)ccc2O[C@H]1CN(C)Cc1ccncc1 | inactive: 0.975 |
| Cc1cc(C(=O)Nc2cccc3c2O[C@@H](CN(C)S(=O)(=O)c2ccc(Cl)cc2)[C@@H](C)CN([C@H](C)CO)C3=O)n(C)n1 | inactive: 0.989 |
| C[C@@H]1CCCCO[C@@H](CN(C)C(=O)NC2CCCCC2)[C@@H](C)CN([C@@H](C)CO)C(=O)c2cc(NC(=O)C3CCCCC3)ccc2O1 | inactive: 1.01 |
| C(=N\Cc1cccnc1)/c1c2ccccc2cc2ccccc12 | inactive: 1.01 |

| Compound | relative growth |
| --- | --- |
| COc1ccc2c3c(n(c2c1)C)[C@H](CO)N(C[C@]13CN(Cc2cccc(c2)F)C1)C(=O)C1CCOCC1 | inactive: 1.01 |
| Cc1noc(C)c1NC(=O)N(C)C[C@@H]1Oc2ccc(NC(=O)NC(C)C)cc2C(=O)N([C@@H](C)CO)C[C@@H]1C | inactive: 0.989 |
| COc1cc(N2CCC(N)CC2)ccc1Nc1ncc(Cl)c(-c2c[nH]c3ccccc23)n1 | inactive: 0.96 |
| C[C@@H]1CN([C@H](C)CO)C(=O)c2cc(N(C)C)ccc2O[C@@H]1CN(C)S(=O)(=O)c1ccc(Cl)cc1 | inactive: 1.01 |
| C[C@H](CO)N1C[C@H](C)[C@H](CN(C)S(C)(=O)=O)Oc2ccc(NC(=O)Nc3ccc(F)cc3)cc2CC1=O | inactive: 1.02 |
| O=C(C[C@@H]1C[C@@H]2c3cc(NC(=O)NC4CCCC4)ccc3O[C@@H]2[C@H](CO)O1)NCc1ccc(-c2ccccc2)cc1 | inactive: 0.933 |
| O=C(/C=C/c1ccc(O)c(O)c1)O[C@@H]1C[C@](O)(C(=O)O)C[C@@H](OC(=O)/C=C/c2ccc(O)c(O)c2)[C@H]1O | inactive: 1.02 |
| COc1ccc2c3c([nH]c2c1)[C@@H](CO)N(C[C@]13CCN(CC1)Cc1ccccc1)S(=O)(=O)c1cn(cn1)C | inactive: 0.977 |
| CCCC(=O)Nc1ccc2c(c1)C(=O)N(C)C[C@@H](OC)[C@@H](C)CN(Cc1ccc(-c3ccccn3)cc1)[C@H](C)CO2 | inactive: 0.999 |
| C[C@H]1CN([C@@H](C)CO)C(=O)c2cccc(NC(=O)c3ccc(-c4nccs4)cc3)c2O[C@H]1CN(C)C(=O)Nc1ccccc1 | inactive: 0.993 |
| CCc1nc2ccc(C(=O)N3CCN(S(=O)(=O)CC)CC3)cn2c1N(CC)C(=O)CCC1CCCC1 | inactive: 1 |
| O=C1OC(c2ccc(O)cc2)(c2ccc(O)cc2)c2ccccc21 | inactive: 0.897 |
| COc1cc(C(=S)N2CCOCC2)ccc1O | inactive: 1.03 |
| COc1cc(OC)c2c(=O)cc(-c3ccccc3)oc2c1 | inactive: 0.974 |
| COc1ccc(S(=O)(=O)Nc2ccc3c(c2)C(=O)N([C@@H](C)CO)C[C@@H](C)[C@@H](CN(C)Cc2ccc4c(c2)OCO4)OCCCC[C@H](C)O3)cc1 | inactive: 0.99 |
| COc1oc(C(=O)NC2CCCCC2)c(-c2ccc(Cl)cc2)c1S(=O)(=O)c1ccccc1Cl | inactive: 1 |
| C[C@H](CO)N1C[C@H](C)[C@@H](CN(C)S(=O)(=O)c2ccccc2)OCCCC[C@H](C)Oc2ccc(NC(=O)Nc3ccccc3)cc2C1=O | inactive: 1.05 |
| Cc1ccc(S(=O)(=O)N(C)C[C@H]2Oc3ccc(NC(=O)CCN4CCOCC4)cc3CC(=O)N([C@@H](C)CO)C[C@H]2C)cc1 | inactive: 1 |
| CCNC(=O)[C@@H]1N[C@@H]2c3ccc(-c4cccc(C(=O)N(C)C)c4)c(=O)n3C[C@@H]2[C@H]1CO | inactive: 1.02 |
| COCC#Cc1ccc2c(c1)O[C@H](CN(C)C(=O)Nc1ccc(OC)cc1)[C@H](C)CN([C@@H](C)CO)S2(=O)=O | inactive: 1 |
| Cc1cc(C(=O)Nc2cccc3c2O[C@H](CN(C)C(=O)NC2CCCCC2)[C@H](C)CN([C@@H](C)CO)C3=O)n(C)n1 | inactive: 0.992 |

| Compound | relative growth |
| --- | --- |
| CC(C)NC(=O)N(C)C[C@H]1Oc2ccc(NC(=O)CCN3CCOCC3)cc2CC(=O)N([C@@H](C)CO)C[C@H]1C | inactive: 1.03 |
| Cc1noc(C)c1NC(=O)Nc1ccc2c(c1)C(=O)N([C@@H](C)CO)C[C@@H](C)[C@@H](CN(C)C(=O)c1ccccc1)OCCCC[C@@H](C)O2 | inactive: 0.977 |
| C[C@H](CO)N1C[C@H](C)[C@@H](CN(C)S(C)(=O)=O)OCCCC[C@H](C)Oc2ccc(NC(=O)CCCN(C)C)cc2C1=O | inactive: 0.994 |
| COc1ccc(C#Cc2ccc3c(c2)[C@]2(C(=O)N3)[C@H](C(=O)N3CCN(c4ncccn4)CC3)[C@H]3C(=O)O[C@H](c4ccccc4)[C@H](c4ccccc4)N3[C@@H]2c2ccccc2OCCO)cc1 | inactive: 1.07 |
| C[C@H]1CN([C@@H](C)CO)C(=O)c2cc(NC(=O)CCN3CCOCC3)ccc2O[C@H]1CN(C)CC1CC1 | inactive: 1.02 |
| C[C@H](CO)N1C[C@H](C)[C@H](CN(C)S(=O)(=O)c2ccc(F)cc2)Oc2ccc(NS(=O)(=O)c3ccc(F)cc3)cc2C1=O | inactive: 0.926 |
| O=C(C[C@H]1C=C[C@H](NC(=O)c2ccc(F)cc2)[C@H](CO)O1)NCc1ccncn1 | inactive: 1.01 |
| COc1ccc2c(C)cc(=O)oc2c1 | inactive: 0.968 |
| C[C@@H]1CN([C@H](C)CO)C(=O)c2cc(NC(=O)Cn3cnnn3)ccc2O[C@@H]1CN(C)C(=O)Nc1ccc(F)cc1 | inactive: 0.957 |
| C[C@H](CO)N1C[C@H](C)[C@@H](CN(C)C(=O)c2ccccc2)OCCCC[C@H](C)Oc2ccc(NS(=O)(=O)c3ccccc3)cc2C1=O | inactive: 0.975 |
| C[C@@H]1CCCCO[C@@H](CN(C)Cc2ccc(Cl)c(Cl)c2)[C@H](C)CN([C@H](C)CO)C(=O)c2cc(NS(=O)(=O)c3cn(C)cn3)ccc2O1 | inactive: 0.986 |
| COc1ccc(NC(=O)Nc2ccc3c(c2)C(=O)N([C@@H](C)CO)C[C@H](C)[C@H](CN(C)Cc2ccncc2)OCCCC[C@@H](C)O3)cc1 | inactive: 1.01 |
| CCO[C@H]1OC(C(=O)N2CCN(Cc3ccc4c(c3)OCO4)CC2)=C[C@@H](c2ccc(Br)cc2)[C@@H]1CCCOC(=O)NCCCCCC(=O)NO | inactive: 0.998 |
| CC(=O)OC[C@]12[C@H](OC(=O)c3ccccc3)C[C@@H]3[C@@H](OC(C)=O)[C@]1(OC3(C)C)[C@H](C)C[C@H](OC(C)=O)[C@@H]2OC(C)=O | inactive: 1.01 |
| O=C(N[C@@H]1C=C[C@@H](CC(=O)N2CCOCC2)O[C@@H]1CO)c1ccc2c(c1)OCO2 | inactive: 1.03 |
| Cc1ccc(S(=O)(=O)N(C)C[C@H]2Oc3ccc(NC(=O)NC(C)C)cc3CC(=O)N([C@@H](C)CO)C[C@H]2C)cc1 | inactive: 0.995 |
| C[C@@H]1CN([C@@H](C)CO)S(=O)(=O)c2ccc(-c3cccc(C(=O)N(C)C)c3)cc2O[C@@H]1CN(C)C(=O)Cc1ccccn1 | inactive: 0.984 |
| CCC(=O)Nn1c(C)nnc1C | inactive: 1.01 |
| COc1ccc(C(=O)Nc2ccc(CN3C(=O)[C@]4(O[C@H](CC(=O)N5Cc6ccccc6C[C@H]5CO)[C@@H]([Si](C)(C)c5ccc(OC)cc5)[C@@H]4C)c4ccccc43)cc2)cc1 | inactive: 1.08 |
